tested on: MLKL phosphorylation, HT29-L23 human colorectal adenocarcinoma cells; assay: cells; details: read-out: pMLKL HCS Cell Assay (IC50, uM)

Compared with `[2H]C([2H])([2H])Oc1ncc(-c2cc(CN3CC(F)(F)C3)c3c(N)ncnn23)cc1C(=O)N[C@@H]1CN(C(=O)CC(C)C)C[C@@H]1F` [Example 1285, 5-{4-amino-5-[(3,3-difluoroazetidin-1-yl)methyl]pyrrolo[2,1-f][1,2,4]triazin-7-yl}-N [(3R,4S)-4-fluoro-1-(3-methylbutanoyl)pyrrolidin-3-yl]-2-(methoxy-d3)nicotinamide], `[2H]C([2H])([2H])Oc1ncc(-c2cc(CN3CC(F)(F)C3)c3c(N)ncnn23)cc1C(=O)N[C@@H]1CN(C(=O)CC(F)(F)F)C[C@@H]1F` [Example 1286, 5-{4-amino-5-[(3,3-difluoroazetidin-1-yl)methyl]pyrrolo[2,1-f][1,2,4]triazin-7-yl}-N-[(3R,4S)-4-fluoro-1-(3,3,3-trifluoropropanoyl)pyrrolidin-3-yl]-2-(methoxy-d3)nicotinamide] is 4.2-fold higher in IC50: 0.0006 µM for the first, 0.0025 µM for the second.

`[2H]C([2H])([2H])Oc1ncc(-c2cc(CN3CC(F)(F)C3)c3c(N)ncnn23)cc1C(=O)N[C@@H]1CN(C(=O)C2CC2(F)F)C[C@@H]1F` (stereo partly drawn) [Example 1287, 5-{4-amino-5-[(3,3-difluoroazetidin-1-yl)methyl]pyrrolo[2,1-f][1,2,4]triazin-7-yl}-N-[(3R,4S)-1-(2,2-difluorocyclopropanecarbonyl)-4-fluoropyrrolidin-3-yl]-2-(methoxy-d3)nicotinamide] and `[2H]C([2H])([2H])Oc1ncc(-c2cc(CN3CC(F)(F)C3)c3c(N)ncnn23)cc1C(=O)N[C@@H]1CN(C(=O)[C@@](C)(O)C(F)(F)F)C[C@@H]1F` [Example 1299, 5-{4-amino-5-[(3,3-difluoroazetidin-1-yl)methyl]pyrrolo[2,1-f][1,2,4]triazin-7-yl}-N-[(3R,4S)-4-fluoro-1-[(2R)-3,3,3-trifluoro-2-hydroxy-2-methylpropanoyl]pyrrolidin-3-yl]-2-(methoxy-d3)nicotinamide] are within 1.5-fold of each other in IC50: 0.00075 µM for the first, 0.00058 µM for the second.

First: [2H]C([2H])([2H])Oc1ncc(-c2cc(CN3CC(F)(F)C3)c3c(N)ncnn23)cc1C(=O)N[C@@H]1CN(S(=O)(=O)CC(C)C)C[C@@H]1F [Example 1289, 5-{4-amino-5-[(3,3-difluoroazetidin-1-yl)methyl]pyrrolo[2,1-f][1,2,4]triazin-7-yl}-N-[(3R,4S)-4-fluoro-1-(2-methylpropanesulfonyl)pyrrolidin-3-yl]-2-(methoxy-d3)nicotinamide]
Second: [2H]C([2H])([2H])Oc1ncc(-c2cc(CN3CC(F)(F)C3)c3c(N)ncnn23)cc1C(=O)N[C@@H]1CN(S(=O)(=O)C(C)C)C[C@@H]1F [Example 1298, 5-{4-amino-5-[(3,3-difluoroazetidin-1-yl)methyl]pyrrolo[2,1-f][1,2,4]triazin-7-yl}-N-[(3R,4S)-4-fluoro-1-(propane-2-sulfonyl)pyrrolidin-3-yl]-2-(methoxy-d3)nicotinamide]
The IC50 of the first is 2.9-fold lower: 0.00049 µM for the first, 0.0014 µM for the second.

`[2H]C([2H])([2H])Oc1ncc(-c2cc(CN3CC(F)(F)C3)c3c(N)ncnn23)cc1C(=O)N[C@@H]1CN(S(=O)(=O)c2cn(C)c(C)n2)C[C@@H]1F` [Example 1290, 5-{4-amino-5-[(3,3-difluoroazetidin-1-yl)methyl]pyrrolo[2,1-f][1,2,4]triazin-7-yl}-N-[(3R,4S)-1-[(1,2-dimethyl-1H-imidazol-4-yl)sulfonyl]-4-fluoropyrrolidin-3-yl]-2-(methoxy-d3)nicotinamide] and `[2H]C([2H])([2H])Oc1ncc(-c2cc(CN3CC(F)(F)C3)c3c(N)ncnn23)cc1C(=O)N[C@@H]1CN(S(C)(=O)=O)C[C@@H]1F` [Example 1294, 5-{4-amino-5-[(3,3-difluoroazetidin-1-yl)methyl]pyrrolo[2,1-f][1,2,4]triazin-7-yl}-N-[(3R,4S)-4-fluoro-1-methanesulfonylpyrrolidin-3-yl]-2-(methoxy-d3)nicotinamide] are within 1.5-fold of each other in IC50: 0.025 µM for the first, 0.024 µM for the second.

`[2H]C([2H])([2H])Oc1ncc(-c2cc(CN3CC(F)(F)C3)c3c(N)ncnn23)cc1C(=O)N[C@@H]1CN(S(=O)(=O)CC2CC2)C[C@@H]1F` [Example 1292, 5-{4-amino-5-[(3,3-difluoroazetidin-1-yl)methyl]pyrrolo[2,1-f][1,2,4]triazin-7-yl}-N-[(3R,4S)-1-cyclopropylmethanesulfonyl-4-fluoropyrrolidin-3-yl]-2-(methoxy-d3)nicotinamide] and `[2H]C([2H])([2H])Oc1ncc(-c2cc(CN3CC(F)(F)C3)c3c(N)ncnn23)cc1C(=O)N[C@@H]1CN(S(=O)(=O)Cc2ccccc2)C[C@@H]1F` [Example 1296, 5-{4-amino-5-[(3,3-difluoroazetidin-1-yl)methyl]pyrrolo[2,1-f][1,2,4]triazin-7-yl}-N-[(3R,4S)-4-fluoro-1-phenylmethanesulfonylpyrrolidin-3-yl]-2-(methoxy-d3)nicotinamide] are within 1.5-fold of each other in IC50: 0.00058 µM for the first, 0.00069 µM for the second.

First: [2H]C([2H])([2H])Oc1ncc(-c2cc(CN3CC(F)(F)C3)c3c(N)ncnn23)cc1C(=O)N[C@@H]1CN(S(=O)(=O)C(c2ccccc2)C(F)(F)F)C[C@@H]1F (stereo partly drawn) [Example 1293, 5-{4-amino-5-[(3,3-difluoroazetidin-1-yl)methyl]pyrrolo[2,1-f][1,2,4]triazin-7-yl}-N-[(3R,4S)-4-fluoro-1-(2,2,2-trifluoro-1-phenylethanesulfonyl)pyrrolidin-3-yl]-2-(methoxy-d3)nicotinamide]
Second: [2H]C([2H])([2H])Oc1ncc(-c2cc(CN3CC(F)(F)C3)c3c(N)ncnn23)cc1C(=O)N[C@@H]1CN(S(=O)(=O)CCc2ccccc2)C[C@@H]1F [Example 1297, 5-{4-amino-5-[(3,3-difluoroazetidin-1-yl)methyl]pyrrolo[2,1-f][1,2,4]triazin-7-yl}-N-[(3R,4S)-4-fluoro-1-(2-phenylethanesulfonyl)pyrrolidin-3-yl]-2-(methoxy-d3)nicotinamide]
The IC50 of the first is 2.4-fold lower: 0.0038 µM for the first, 0.0091 µM for the second. The first is the more potent here.

First: [2H]C([2H])([2H])Oc1ncc(-c2cc(CN3CC(F)(F)C3)c3c(N)ncnn23)cc1C(=O)N[C@@H]1CN(S(=O)(=O)c2ccccc2OC)C[C@@H]1F [Example 1295, 5-{4-amino-5-[(3,3-difluoroazetidin-1-yl)methyl]pyrrolo[2,1-f][1,2,4]triazin-7-yl}-N-[(3R,4S)-4-fluoro-1-(2-methoxybenzenesulfonyl)pyrrolidin-3-yl]-2-(methoxy-d3)nicotinamide]
Second: COc1ncc(-c2cc(C(F)(F)F)c3c(N)ncnn23)cc1C(=O)Nc1nc(C(=O)NCC2CC2)co1 [Example 1301, 5-[4-amino-5-(trifluoromethyl)pyrrolo-[2,1-f][1,2,4]triazin-7-yl]-N-{4-[(cyclopropylmethyl)carbamoyl]-1,3-oxazol-2-yl}-2-methoxypyridine-3-carboxamide]
The IC50 of the first is 490-fold lower: 0.00061 µM for the first, 0.298 µM for the second.

`COc1ncc(-c2cc(C(F)(F)F)c3c(N)ncnn23)cc1C(=O)Nc1nc(C(=O)NC(C)(C)C)co1` [Example 1300, 5-[4-amino-5-(trifluoromethyl)pyrrolo-[2,1-f][1,2,4]triazin-7-yl]-N-[4-(tert-butylcarbamoyl)-1,3-oxazol-2-yl]-2-methoxypyridine-3-carboxamide] and `COc1ncc(-c2cc(C(F)(F)F)c3c(N)ncnn23)cc1C(=O)Nc1nc(C(=O)NC(C)C)co1` [Example 1302, 5-[4-amino-5-(trifluoromethyl)pyrrolo-[2,1-f][1,2,4]triazin-7-yl]-2-methoxy-N-{4-[(propan-2-yl)carbamoyl]-1,3-oxazol-2-yl}pyridine-3-carboxamide] are within 1.5-fold of each other in IC50: 0.328 µM for the first, 0.356 µM for the second.

Reference: patent publication US11618753B2 (priority 2018, dated 2023)
